# The list shows a part of the results.
# B1: FGFR2-Fc (protein)
# chain: MVNVTDAISSGDDEDDTDGAEDFVSENSNNKRAPYWTNTEKMEKRLHAVPAANTVKFRCPAGGNPMPTMRWLKNGKEFKQEHRIGGYKVRNQHWSLIMESVVPSDKGNYTCVVENEYGSINHTYHLDVVERSPHRPILQAGLPANASTVVGGDVEFVCKVYSDAQPHIQWIKHVEKNGSKYGPDGLPYLKVLKHSGINSSNAEVLALFNVTEADAGEYICKVSNYIGQANQSAWLTVLPKQQAPGREKEITASPDYLETRPLEQKLISEEDLAANDILDYKDDDDKV
# Key:
# Experiment in all cases: glycan array binding signal (z-score within array); higher = stronger binding
# Conditions in all cases: glycan notation: IUPAC condensed, linker removed
# Glc(b1-6)Glc = target: Glc(b1-6)Glc
# How it was run: (§1)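 Glycan array data were curated from 3228 arrays in the Consortium for Functional Glycomics database and kept only where the protein sequence was available. Glycan names were converted to IUPAC-condensed notation, and columns mapping to the same glycan were averaged. The binding signal is a within-array Z-score, averaged across arrays of the same protein sequence at different concentrations or buffers and across linkers. Negative Z-scores can be read as non-binding.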
# GlcA(b1-3)Gal = target: GlcA(b1-3)Gal
# How it was run: as §1
# GlcA(b1-3)GlcNAc = target: GlcA(b1-3)GlcNAc
# How it was run: as §1
# GlcA(b1-6)Gal = target: GlcA(b1-6)Gal
# How it was run: as §1
# [1] = target: GlcA3S(b1-3)Gal(b1-4)GlcNAc(b1-2)Man
# How it was run: as §1
# [2] = target: GlcA3S(b1-3)Gal(b1-4)GlcNAc(b1-3)Gal(b1-4)Glc
# How it was run: as §1
# [3] = target: GlcNAc(a1-3)Gal(b1-4)GlcNAc
# How it was run: as §1
# [4] = target: GlcNAc(a1-4)Gal(b1-3)GlcNAc
# How it was run: as §1
# [5] = target: GlcNAc(a1-4)Gal(b1-4)GalNAc
# How it was run: as §1
# [6] = target: GlcNAc(a1-4)Gal(b1-4)GlcNAc
# How it was run: as §1
# [7] = target: GlcNAc(a1-4)Gal(b1-4)GlcNAc(b1-3)Gal(b1-4)Glc
# How it was run: as §1
# [8] = target: GlcNAc(a1-4)Gal(b1-4)GlcNAc(b1-3)Gal(b1-4)GlcNAc
# How it was run: as §1
# [9] = target: GlcNAc(a1-4)Gal(b1-4)GlcNAc(b1-3)Gal(b1-4)GlcNAc(b1-3)Gal(b1-4)GlcNAc
# How it was run: as §1
# [10] = target: GlcNAc(a1-4)Gal(b1-4)GlcNAc(b1-3)Gal(b1-4)[Fuc(a1-3)]GlcNAc(b1-3)Gal(b1-4)[Fuc(a1-3)]GlcNAc
# How it was run: as §1
# [11] = target: GlcNAc(a1-6)Gal(b1-4)GlcNAc
# How it was run: as §1
# [12] = target: GlcNAc(b1-2)Gal(b1-3)GalNAc
# How it was run: as §1
# [13] = target: GlcNAc(b1-2)Man(a1-3)[GlcNAc(b1-2)Man(a1-6)]Man(b1-4)GlcNAc(b1-4)GlcNAc
# How it was run: as §1
# [14] = target: GlcNAc(b1-2)Man(a1-3)[GlcNAc(b1-2)Man(a1-6)]Man(b1-4)GlcNAc(b1-4)[Fuc(a1-6)]GlcNAc
# How it was run: as §1
# [15] = target: GlcNAc(b1-2)Man(a1-3)[GlcNAc(b1-4)][GlcNAc(b1-2)Man(a1-6)]Man(b1-4)GlcNAc(b1-4)GlcNAc
# How it was run: as §1
# [16] = target: GlcNAc(b1-2)Man(a1-3)[GlcNAc(b1-4)][GlcNAc(b1-2)Man(a1-6)]Man(b1-4)GlcNAc(b1-4)[Fuc(a1-6)]GlcNAc
# How it was run: as §1
# [17] = target: GlcNAc(b1-2)[GlcNAc(b1-4)]Man(a1-3)[GlcNAc(b1-2)Man(a1-6)]Man(b1-4)GlcNAc(b1-4)GlcNAc
# How it was run: as §1
# [18] = target: GlcNAc(b1-2)[GlcNAc(b1-4)]Man(a1-3)[GlcNAc(b1-4)][GlcNAc(b1-2)Man(a1-6)]Man(b1-4)GlcNAc(b1-4)GlcNAc
# How it was run: as §1
# [19] = target: GlcNAc(b1-2)[GlcNAc(b1-4)]Man(a1-3)[GlcNAc(b1-4)][GlcNAc(b1-2)[GlcNAc(b1-6)]Man(a1-6)]Man(b1-4)GlcNAc(b1-4)GlcNAc
# How it was run: as §1
# [20] = target: GlcNAc(b1-2)[GlcNAc(b1-4)]Man(a1-3)[GlcNAc(b1-4)][GlcNAc(b1-2)[GlcNAc(b1-6)]Man(a1-6)]Man(b1-4)GlcNAc(b1-4)[Fuc(a1-6)]GlcNAc
# How it was run: as §1
# [21] = target: GlcNAc(b1-2)[GlcNAc(b1-6)]Man(a1-6)[GlcNAc(b1-2)Man(a1-3)]Man(b1-4)GlcNAc(b1-4)GlcNAc
# How it was run: as §1
# [22] = target: GlcNAc(b1-2)[GlcNAc(b1-6)]Man(a1-6)[GlcNAc(b1-2)Man(a1-3)]Man(b1-4)GlcNAc(b1-4)[Fuc(a1-6)]GlcNAc
# How it was run: as §1
# [23] = target: GlcNAc(b1-2)[GlcNAc(b1-6)]Man(a1-6)[GlcNAc(b1-4)][GlcNAc(b1-2)Man(a1-3)]Man(b1-4)GlcNAc(b1-4)GlcNAc
# How it was run: as §1
# GlcNAc(b1-3)Fuc = target: GlcNAc(b1-3)Fuc
# How it was run: as §1
# GlcNAc(b1-3)Gal = target: GlcNAc(b1-3)Gal
# How it was run: as §1
# [24] = target: GlcNAc(b1-3)Gal(b1-3)GalNAc
# How it was run: as §1
# GlcNAc(b1-3)Gal(b1-4)Glc = target: GlcNAc(b1-3)Gal(b1-4)Glc
# How it was run: as §1
# [25] = target: GlcNAc(b1-3)Gal(b1-4)GlcNAc
# How it was run: as §1
# [26] = target: GlcNAc(b1-3)Gal(b1-4)GlcNAc(b1-2)Man(a1-3)[GlcNAc(b1-3)Gal(b1-4)GlcNAc(b1-2)Man(a1-6)]Man(b1-4)GlcNAc(b1-4)GlcNAc
# How it was run: as §1
# [27] = target: GlcNAc(b1-3)Gal(b1-4)GlcNAc(b1-2)Man(a1-3)[GlcNAc(b1-3)Gal(b1-4)GlcNAc(b1-2)Man(a1-6)]Man(b1-4)GlcNAc(b1-4)[Fuc(a1-6)]GlcNAc
# How it was run: as §1
# [28] = target: GlcNAc(b1-3)Gal(b1-4)GlcNAc(b1-2)[GlcNAc(b1-3)Gal(b1-4)GlcNAc(b1-6)]Man(a1-6)[GlcNAc(b1-3)Gal(b1-4)GlcNAc(b1-2)Man(a1-3)]Man(b1-4)GlcNAc(b1-4)GlcNAc
# How it was run: as §1
# [29] = target: GlcNAc(b1-3)Gal(b1-4)GlcNAc(b1-3)Gal(b1-4)GlcNAc
# How it was run: as §1
# [30] = target: GlcNAc(b1-3)Gal(b1-4)GlcNAc(b1-3)Gal(b1-4)GlcNAc(b1-2)Man(a1-3)[GlcNAc(b1-3)Gal(b1-4)GlcNAc(b1-3)Gal(b1-4)GlcNAc(b1-2)Man(a1-6)]Man(b1-4)GlcNAc(b1-4)GlcNAc
# How it was run: as §1
binder,measurement,setting,value
B1,glycan array binding signal (z-score),Glc(b1-6)Glc,-0.248
same,glycan array binding signal (z-score),GlcA(b1-3)Gal,-0.029
same,glycan array binding signal (z-score),GlcA(b1-3)GlcNAc,-0.356
same,glycan array binding signal (z-score),GlcA(b1-6)Gal,0.307
same,glycan array binding signal (z-score),[1],-0.293
same,glycan array binding signal (z-score),[2],-0.6
same,glycan array binding signal (z-score),[3],22.2
same,glycan array binding signal (z-score),[4],-0.278
same,glycan array binding signal (z-score),[5],-0.569
same,glycan array binding signal (z-score),[6],-0.008
same,glycan array binding signal (z-score),[7],0.349
same,glycan array binding signal (z-score),[8],-0.373
same,glycan array binding signal (z-score),[9],-0.686
same,glycan array binding signal (z-score),[10],1.49
same,glycan array binding signal (z-score),[11],-0.513
same,glycan array binding signal (z-score),[12],0.468
same,glycan array binding signal (z-score),[13],-0.082
same,glycan array binding signal (z-score),[14],-0.004
same,glycan array binding signal (z-score),[15],-0.754
same,glycan array binding signal (z-score),[16],-0.284
same,glycan array binding signal (z-score),[17],0.06
same,glycan array binding signal (z-score),[18],-0.277
same,glycan array binding signal (z-score),[19],-0.537
same,glycan array binding signal (z-score),[20],0.045
same,glycan array binding signal (z-score),[21],-0.124
same,glycan array binding signal (z-score),[22],-0.003
same,glycan array binding signal (z-score),[23],-0.09
same,glycan array binding signal (z-score),GlcNAc(b1-3)Fuc,0.448
same,glycan array binding signal (z-score),GlcNAc(b1-3)Gal,-0.461
same,glycan array binding signal (z-score),[24],-0.02
same,glycan array binding signal (z-score),GlcNAc(b1-3)Gal(b1-4)Glc,0.11
same,glycan array binding signal (z-score),[25],-0.231
same,glycan array binding signal (z-score),[26],-0.118
same,glycan array binding signal (z-score),[27],-0.197
same,glycan array binding signal (z-score),[28],0.186
same,glycan array binding signal (z-score),[29],0.276
same,glycan array binding signal (z-score),[30],0.141

# — the supplement of paper PMC8728848
